Measurements taken from PubChem BioAssay AID488969 (Vanderbilt High Throughput Screening Facility, 2010).
Where “and” joins values, the source holds several entries; their conditions need not be identical. Equal values may be shown once. Over roughly 110,000 compounds, “z-score” has its median near -0.1; the highest 2% begin near 2. Some of the results follow.

Each compound was assayed against Metabotropic glutamate receptor 8 (Rattus norvegicus) (UniProt P70579) (assay: rat mGluR8 modulators via GIRK flux, primary screen, cell-based, thallium flux, HTS (AID 488969)). Details: HEK293 rat mGluR8, GIRK (G protein-gated inwardly rectifying potassium channel) thallium flux, FluoZin2; at 10 µM; stronger effect = higher value; submaximal glutamate (EC20) added with thallium.
Sequence of UniProt P70579 (P70579 whole entry, looked up): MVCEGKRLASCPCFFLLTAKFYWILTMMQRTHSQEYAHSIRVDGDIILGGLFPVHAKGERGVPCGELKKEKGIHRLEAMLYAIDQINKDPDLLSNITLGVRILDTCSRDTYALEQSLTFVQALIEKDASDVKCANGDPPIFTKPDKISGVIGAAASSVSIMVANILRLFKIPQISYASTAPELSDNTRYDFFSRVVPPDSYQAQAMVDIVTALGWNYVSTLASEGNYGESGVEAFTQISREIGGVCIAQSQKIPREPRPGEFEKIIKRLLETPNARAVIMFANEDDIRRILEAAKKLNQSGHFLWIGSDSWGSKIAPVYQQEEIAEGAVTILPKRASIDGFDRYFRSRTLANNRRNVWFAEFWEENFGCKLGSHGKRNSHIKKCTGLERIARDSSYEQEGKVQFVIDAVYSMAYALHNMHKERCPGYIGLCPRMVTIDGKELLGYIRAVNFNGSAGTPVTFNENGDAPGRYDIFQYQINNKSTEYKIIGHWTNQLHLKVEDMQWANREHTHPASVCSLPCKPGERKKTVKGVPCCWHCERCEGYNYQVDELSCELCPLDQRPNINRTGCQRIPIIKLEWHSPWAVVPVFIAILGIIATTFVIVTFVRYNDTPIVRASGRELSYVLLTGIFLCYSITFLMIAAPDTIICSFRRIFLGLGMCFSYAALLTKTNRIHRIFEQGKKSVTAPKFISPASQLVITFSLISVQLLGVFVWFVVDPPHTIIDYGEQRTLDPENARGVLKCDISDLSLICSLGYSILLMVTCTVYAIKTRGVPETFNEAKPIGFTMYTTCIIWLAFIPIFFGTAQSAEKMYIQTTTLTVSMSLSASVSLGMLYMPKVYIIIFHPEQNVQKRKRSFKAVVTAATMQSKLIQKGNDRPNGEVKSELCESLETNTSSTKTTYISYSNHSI

Row | SMILES | z-score
1 | CC1CCCCN1CCNC(=O)c1ccc2c(=O)n(CCc3ccccc3)c(=O)[nH]c2c1 (stereo not given) | 0.188
2 | Oc1[nH]c2ccccc2c1/C=N/N1CCCCC1 | -0.215
3 | COc1cccc(NC(=O)c2cnsn2)c1 | -0.046
4 | N#Cc1c(N)nc2c(c1N)CC(CCl)O2 (stereo not given) | -0.0539
5 | CC1(C)COC(c2cccn2Cc2ccccc2Cl)=N1 | -0.0723
6 | Cc1nc(N2C(=O)C(=O)/C(=C(/O)c3ccccc3)C2c2ccco2)sc1C (stereo not given) | -0.802
7 | CC(C)N(C(=O)Cn1c(SCC(=O)NCc2ccc3c(c2)OCO3)nc2ccccc21)C(C)C | 0.0294
8 | CC(=O)Nc1ccc(S(=O)(=O)N2CCc3c(Cl)cccc3C2)cc1 | 0.212
9 | CC(C)(C)C(=O)[C@H]1[C@H](c2ccccc2)[C@@]2(N=C(c3ccccc3)OC2=O)C2c3ccccc3C=NN21 (stereo not given in full) | -0.0699
10 | CCOc1c(CNCCNC(=O)c2nonc2N)cccc1OC | -0.21
11 | CCCC(=O)Nc1ccc(NC(=O)Cc2ccccc2)cn1 | -0.239
12 | Oc1ccccc1/C=N/n1c(-c2cccs2)n[nH]c1=S | 0.8
13 | Cc1cc(C(=O)NCC(C)C)c2ccccc2n1 | -0.15
14 | Cc1ccc(-n2sc3ccccc3c2=O)cc1S(=O)(=O)N1CCCCC1 | 0.479
15 | Cc1cn2c(-c3ccc(Cl)cc3)nnc2s1 | -0.431
16 | Cc1ccc(N=C2SCCCN2C(=O)c2ccco2)cc1Cl | 0.956
17 | Cc1nc2cc(C(=O)O)ccc2n1-c1ccc(F)cc1F | -0.0543
18 | Cc1cccc(C)c1NC(=S)N(C)CCc1ccccn1 | -0.153
19 | Cn1nc(-c2ccc(Cl)cc2)c2cc(C(=O)NCC3CCCO3)sc21 (stereo not given) | -0.177
20 | COCCn1c(SCC(=O)c2c[nH]c3ccccc23)nnc1-c1ccncc1 | -0.309
21 | Cc1cc(N/C=C/C(=O)c2ccc(Br)cc2)no1 | -0.0465
22 | COc1cc(C2/C(=C(/O)c3ccc(F)cc3)C(=O)C(=O)N2CCCC(=O)O)ccc1O (stereo not given) | -0.85

Row | SMILES | z-score
23 | Cc1cc(Cl)ccc1OCC(=O)NC(=S)Nc1ccccc1N1CCOCC1 | 0.195
24 | CSc1nc(C)cc(Oc2ccc(OCCOc3ccccc3)nn2)n1 | -0.702
25 | Cc1ccc(NC(=O)C2CCCN(S(=O)(=O)c3cnc[nH]3)C2)cc1C (stereo not given) | -0.189
26 | COC(=O)/C=C1/SC(=Nc2ccc(C)cc2C)NC1=O | 0.161
27 | COc1cccc(-n2c(C)nc3c(cnn3-c3ccc(Cl)cc3)c2=O)c1 | 0.188
28 | CCCN1C(=O)c2cc(C(=O)NCc3cccs3)ccc2C1O (stereo not given) | 0.00391
29 | COc1ccc(S(=O)(=O)NCCSc2ccc(C)cc2)cc1OC | -0.805
30 | CCOC(=O)C(=O)/C(=C\N(C)C)c1onc(-c2ccccc2)c1C(=O)OC | -0.0619
31 | CCCCNS(=O)(=O)c1ccc(OC)c2ncccc12 | 0.248
32 | COCCNc1nc(C(C)(C)C)nc2c1nnn2Cc1ccccc1Cl | 0.404
33 | COc1ccccc1-c1noc(CCC(=O)Nc2ccccc2Cl)n1 | -0.687
34 | COc1ccc(OC)c(S(=O)(=O)N(C)CC(=O)N2CCc3ccccc3C2)c1 | 0.264
35 | O=C(CCC(=O)N1CCN(S(=O)(=O)c2ccc(Cl)cc2)CC1)NC1CCCc2ccccc21 (stereo not given) | 0.0235
36 | CCn1c(=O)c(C(C)=O)nc2ccccc21 | -0.0198
37 | O=C(CN1C(=O)NC2(CCCC2)C1=O)Nc1nc(-c2ccc(F)cc2)cs1 | -0.141
38 | OC1(c2cccc(C(F)(F)F)c2)CCNCC1 | -0.227
39 | COC(=O)C(C)N1C(=O)S/C(=C/c2cc(C)n(-c3ccccn3)c2C)C1=O (stereo not given) | 1.27
40 | Cn1nc(CC(=O)NC2CCCCCCCCCCC2)c2ccccc2c1=O | 0.00205
41 | COCCCNC(=O)Cn1nnc(-c2ccc(NC(=O)c3ccccc3F)cc2)n1 | -0.635
42 | Nc1cc(C(=O)c2ccccc2)ccc1N1CCOCC1 | -0.0635
43 | CC(=O)OCC(=O)NCc1ccc2c(c1)OCO2 | 0.165
44 | OCC1(C2=NOC(O)(C(F)(F)F)C2)CCCCC1 (stereo not given) | 0.325

Row | SMILES | z-score
45 | COc1ccc(Sc2nnc(Cc3ccccc3)c3ccccc23)cc1 | -0.186
46 | Cc1c(C(=O)OCCOc2ccccc2)[nH]c2c1C(=O)CCC2 | 0.00319
47 | O=C(NCCCCC(NC(=O)c1ccc([N+](=O)[O-])cc1)C(=O)O)c1ccc([N+](=O)[O-])cc1 (stereo not given) | -0.171
48 | O=c1c2c(nc3nc(COc4ccccc4)[nH]n13)CCC2 | -1.15
49 | Cc1c(C(=O)O)oc2c1C(O)CC(C)(C)C2 (stereo not given) | 1.41 and 0.851
50 | COc1ccc(C(=O)CCC(=O)O)c(C)c1 | 0.03
51 | Cc1ccc(S(=O)(=O)N2CCCN(S(=O)(=O)c3ccc4ccccc4c3)CC2)cc1 | -0.159
52 | CC(C)c1ccc(C2CC(=O)N3CN(C)CSC3=C2C#N)cc1 (stereo not given) | -0.145
53 | Cc1nn(Cc2ccccc2Cl)c(C)c1NC(=O)C1C2CCC(O2)C1C(=O)O (stereo not given) | -0.217
54 | CC(C)Cc1nnc(NC(=O)CS(=O)(=O)Cc2ccccc2)s1 | -0.0843
55 | O=C1CN(C(=O)CC2c3ccccc3-c3ccccc32)CC(=O)N1 | 0.0971
56 | CCc1cccc2c(C(=O)COC(=O)/C=C/c3ccc(O)c(OC)c3)c[nH]c12 | 0.418
57 | Cc1cccc(OCC(=O)Nc2ccc(C(=O)NCc3cccnc3)cc2)c1 | -0.0795
58 | Cc1ccc(NC(=S)NNC(=O)c2c([N+](=O)[O-])c(C)nn2C)cc1 | -0.131
59 | Cc1ccc(C(=O)N/C(=C\c2ccc(-c3ccc([N+](=O)[O-])cc3)o2)C(=O)NC2CCS(=O)(=O)C2)cc1 (stereo not given) | -1.56
60 | CCn1nc(C(=O)OCC(=O)Nc2nc(-c3ccc(OC)cc3)cs2)c2ccccc2c1=O | -0.337
61 | C=C(C)c1cccc(C(C)(C)NC(=O)NCc2ccc(OC)c(OC)c2)c1 | -0.0899
62 | O=C1C2CC=C(Cl)CC2C(=O)N1CN(Cc1ccco1)CN1C(=O)C2CC=C(Cl)CC2C1=O (stereo not given) | 0.00833
63 | CCOc1ccc(N2C(=O)c3cccnc3C2Nc2ccc(C)c(C)c2)cc1 (stereo not given) | -0.171
64 | C=CCn1cc(C(=O)OC)c(=O)c2cc(S(=O)(=O)N3CCC(C)CC3)ccc21 | -0.336
65 | O=C(COc1ccc(Cl)cc1)Nc1ccccc1C(=O)NCc1ccco1 | -0.123
66 | O=C(Nc1cccc(S(=O)(=O)N2CCCC2)c1)c1ccc2c(=O)n3c(nc2c1)CCCCC3 | -1.24

Row | SMILES | z-score
67 | CCCCOc1cccc(/C=N/NC(=O)c2csc(C)c2C)c1 | -0.0133
68 | Cc1ccccc1NC(=O)C1C2CCC(O2)C1C(=O)O (stereo not given) | 0.0158
69 | Cc1nnc(NC2CCCCC2)[nH]c1=O | 0.729
70 | Cn1c(NCc2cccc(Br)c2)nc2ccccc21 | -0.712
71 | COc1ccccc1C(=O)Nc1cc(-c2nn3c(C)nnc3s2)ccc1C | -1.43
72 | COc1ccc(N2C(=O)CC(N3CCC(O)(c4ccc(Cl)cc4)CC3)C2=O)cc1 (stereo not given) | -0.121
73 | CC(=O)c1ccc(N2CCN(S(=O)(=O)c3cccc(S(=O)(=O)N4CCOCC4)c3)CC2)cc1 | 0.167
74 | O=C(O)Cc1sc(-c2ccccc2)nc1-c1ccccc1 | -0.192
75 | CC(Sc1ccccc1)C(=O)Nc1ccc(S(=O)(=O)N2CCOCC2)cc1 (stereo not given) | 0.0953
76 | Nc1nnc(-c2ccccc2)s1 | -0.337
77 | COc1ccc(-c2nn(CCC(=O)O)cc2/C=C2\SC(N)=NC2=O)cc1 | -0.114
78 | O=C(CN1CCN(c2ccc(F)cc2)CC1)OCc1ccccc1 | -0.253
79 | CC(Sc1nnc(Cc2cccs2)n1C1CCCCC1)C(N)=O (stereo not given) | -0.262
80 | O=C(Nc1cccc(-c2nc3ccccc3s2)c1)c1ccc2c(c1)OCO2 | -0.76
81 | CCOC(=O)c1c(C)cc(C)n2c1nc1ccccc12 | -0.141
82 | CCOC(=O)c1oc2c(O)c(O)ccc2c(=O)c1-c1nncn1-c1ccccc1 | -0.05
83 | O=C(N/N=C/c1cccc([N+](=O)[O-])c1)c1cccs1 | 0.379
84 | Cc1cccc(-n2c(N)cc(=O)nc2SCC(=O)Nc2ccccc2)c1 | -0.48
85 | c1ccc(CC2CCN(c3nc4ccccc4n4nnnc34)CC2)cc1 | -0.147
86 | Fc1ccccc1N1CCN(CC2CC3C=CC2C3)CC1 (stereo not given) | -0.343
87 | Cc1ccc(OCC(O)CN2CC3(C)CC2CC(C)(C)C3)cc1 (stereo not given) | 0.105
88 | Cc1ccc(-c2nc3ccc(NS(=O)(=O)c4ccccc4)cc3[nH]2)o1 | 1.31

Row | SMILES | z-score
89 | CCN(CC)C(=O)CN(c1ccc2c(c1)OCO2)S(C)(=O)=O | 2.51
90 | COC(=O)c1cccc(S(=O)(=O)N(Cc2ccco2)Cc2cc3ccc(OC)cc3[nH]c2=O)c1 | 0.782
91 | CN(C)CCCOc1nc2c(c(=O)n(C)c(=O)n2C)n1C | 0.128
92 | CC(C)OCCCNC(=O)c1cccs1 | 0.37
93 | COc1ccc(C(=O)/C(=C/c2cccs2)c2nc3ccccc3o2)cc1 | 0.351
94 | Cc1ccc(Cn2nc(C)c(NC(=O)c3nn(C)cc3Cl)c2C)cc1 | 0.166
95 | COc1cccc(-n2nnnc2SCC(=O)N2CCCc3ccccc32)c1 | -0.666
96 | CC(C)c1ccc(C(C(=O)NC(C)(C)C)N(C(=O)CNC(=O)c2ccco2)c2cccnc2)cc1 (stereo not given) | -0.299
97 | O=C(Cc1cccs1)N(Cc1ccco1)C1(C(=O)NC2CCCCC2)CCCCC1 | 1.89
98 | O=C(NC1c2ccccc2-c2ccccc21)c1ccccc1 | -0.122
99 | CS(=O)(=O)N(Cc1ccccc1)c1ccc(C(=O)NCC2CCCO2)cc1 (stereo not given) | 0.431
100 | Cc1cc(N2CCN(C)CC2)nc(N2CCOCC2)n1 | 0.212
101 | COc1ccc(C)cc1S(=O)(=O)N(CC(=O)Nc1ccc2c(c1)OCCO2)Cc1ccccc1 | 1.58
102 | COc1ccc(Br)cc1-c1noc(-c2ccncc2)n1 | 0.0779
103 | CC(C)Cc1nc(SCC(=O)NCc2ccccc2)n[nH]1 | -0.331
104 | CCN(CC)c1ccc(NC(=O)CSc2nc3ccccc3c(=O)n2-c2cc(S(=O)(=O)N(C)C)ccc2C)cc1 | -0.0627
105 | CN(c1ccccc1)S(=O)(=O)c1ccc(NC(=O)c2ccccc2)cc1 | -0.359
106 | Cc1ccc(-n2c(SCC(=O)N3CC(=O)Nc4ccccc43)nc3ccccc3c2=O)cc1 | -0.279
107 | CCCC1S/C(=N/N=C/c2cccs2)NC1=O (stereo not given) | -0.9
108 | CN(C(=O)c1cc2sccc2n1C)C1CCCCC1 | -0.766
109 | CC(=O)c1c(C)[nH]c(C(=O)OCC(=O)Nc2cc(Cl)ccc2[N+](=O)[O-])c1C | -0.444
110 | CCC(CC)C(=O)NCCc1ccc(OC)c(OC)c1 | 0.262
